Data as given in PubChem BioAssay AID504332 (National Center for Advancing Translational Sciences (NCATS), 2011).
In all, about 350,000 compounds went through this assay and about 31,000 (8.9%) were called active. Inconclusive means that the source gave no clear call. Such entries were picked first, then a sample of the others. Calls come from the whole dose curve; as a rule, active = well fitted inhibition curve with a large enough effect; inconclusive = small, poorly fitted or top-dose-only effect; inactive = no such curve, though single readings can be large or run the other way. Potencies beside an inconclusive call are fits to weak or partial responses and may not hold up.

Target: Histone-lysine N-methyltransferase EHMT2 (Homo sapiens) (UniProt Q96KQ7)
Experiment: qHTS Assay for Inhibitors of Histone Lysine Methyltransferase G9a; note: nearly all actives have a fitted effect of over 75% in size
Conditions: G9a H3K9 monomethylation, AlphaScreen, 2 h; activity, negative = inhibition: at 59 µM (top of the series) unless noted
In short: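 G9a (20 nM) was preincubated 15 min with compound, then reacted 2 h at room temperature with 500 nM biotin-H3K9 peptide and 20 µM SAM. Monomethyl-H3K9 detected by AlphaScreen using anti-H3K9me1 antibody.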
% is set by controls: 0 for no effect and ±100 for the full control effect; potency is the fitted concentration of half-maximal effect; tags give direction and shape of the fitted curve.

Sequence of UniProt Q96KQ7 (Q96KQ7 whole entry, looked up): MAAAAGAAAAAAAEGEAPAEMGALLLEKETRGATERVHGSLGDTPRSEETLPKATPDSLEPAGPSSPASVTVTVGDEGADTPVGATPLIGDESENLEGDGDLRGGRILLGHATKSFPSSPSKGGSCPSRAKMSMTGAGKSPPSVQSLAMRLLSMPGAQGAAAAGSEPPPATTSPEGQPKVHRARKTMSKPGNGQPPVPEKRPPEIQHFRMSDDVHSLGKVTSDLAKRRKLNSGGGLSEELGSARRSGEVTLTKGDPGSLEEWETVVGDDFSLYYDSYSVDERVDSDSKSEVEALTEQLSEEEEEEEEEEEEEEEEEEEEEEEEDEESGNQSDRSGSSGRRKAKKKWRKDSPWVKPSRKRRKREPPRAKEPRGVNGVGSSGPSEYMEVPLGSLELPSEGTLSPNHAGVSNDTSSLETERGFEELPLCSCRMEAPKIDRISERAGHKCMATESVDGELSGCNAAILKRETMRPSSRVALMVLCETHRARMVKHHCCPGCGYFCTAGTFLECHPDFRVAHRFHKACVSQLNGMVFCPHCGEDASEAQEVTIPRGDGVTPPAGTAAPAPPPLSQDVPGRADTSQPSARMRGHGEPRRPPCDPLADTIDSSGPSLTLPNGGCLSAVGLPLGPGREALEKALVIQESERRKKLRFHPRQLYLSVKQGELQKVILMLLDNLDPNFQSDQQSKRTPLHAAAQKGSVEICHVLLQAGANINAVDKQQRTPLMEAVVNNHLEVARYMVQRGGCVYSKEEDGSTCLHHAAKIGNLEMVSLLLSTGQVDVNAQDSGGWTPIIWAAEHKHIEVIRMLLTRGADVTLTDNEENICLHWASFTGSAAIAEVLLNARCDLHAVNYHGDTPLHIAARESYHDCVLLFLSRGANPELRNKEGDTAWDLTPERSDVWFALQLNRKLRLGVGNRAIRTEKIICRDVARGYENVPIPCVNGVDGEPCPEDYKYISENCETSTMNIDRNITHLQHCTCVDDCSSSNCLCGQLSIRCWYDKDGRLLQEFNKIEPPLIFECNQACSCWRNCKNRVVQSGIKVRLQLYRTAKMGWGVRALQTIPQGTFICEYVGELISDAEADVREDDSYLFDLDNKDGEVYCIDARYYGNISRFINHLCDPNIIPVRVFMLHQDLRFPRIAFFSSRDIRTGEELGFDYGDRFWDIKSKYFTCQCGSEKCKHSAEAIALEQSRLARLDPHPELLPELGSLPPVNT

SMILES | Potency | activity, negative = inhibition
O=C(NCC(c1ccco1)N1CCN(c2ccccc2F)CC1)c1ccc2c(c1)OCO2 (stereo not given) | inconclusive: 89.1 µM [inhibitor, partial curve, poor fit] | 
N#C/C=C1/NC(=O)c2ccccc2S1 | active: 44.7 µM | 
Cc1cc(C)cc(CC(Cc2nc3ccccc3[nH]2)c2nc3ccccc3[nH]2)c1 (stereo not given) | inconclusive: 14.1 µM [inhibitor, partial curve, poor fit] | 
Cc1ccccc1Nc1c([N+](=O)[O-])ccc2c1=NC1(CCCCC1)N=2 | inconclusive: 35.5 µM [inhibitor, partial curve] | 
Cc1ccc(CCNC(=O)c2ccc3c(c2)N(Cc2ccccc2F)C(=O)c2ccccc2S3=O)cc1 (stereo not given) |  | inactive: -1.02%
Cc1ccc(S(=O)(=O)Nc2cc(NC(=O)CN3CCOCC3)ccc2Cl)cc1 | inconclusive: 22.4 µM [inhibitor, single point] | 
COc1ccc(-c2csc3ncnc(N4CCN(c5ccccc5[N+](=O)[O-])CC4)c23)cc1 | active: 14.1 µM | 
COc1cc(/C=N/NS(=O)(=O)c2ccc3ccccc3c2)ccc1OCc1ccc(C(=O)O)cc1 | active: 50.1 µM | 
COc1cc(C2Nc3ccccc3C(=O)N2NS(C)(=O)=O)ccc1O (stereo not given) |  | inactive: 3.86% [at 102 µM]
CCOC(=O)c1c(S(=O)(=O)NCC(=O)Nc2ccc(C(C)=O)cc2)c(C)n(C)c1C |  | inactive: 5.77%
N#Cc1c(-c2ccccc2)cc(-c2ccc3c(c2)OCO3)[nH]c1=O |  | inactive: 11.4%
O=S1(=O)N=C(N2CCN(Cc3ccc4c(c3)OCO4)CC2)c2ccccc21 |  | inactive: -1.05%
O=C1C(=O)N(C2CCNCC2)CCN1Cc1ccccc1 | inconclusive: 28.2 µM [inhibitor, partial curve, poor fit] | 
COC(=O)c1nn(-c2ccc(C)cc2)c2nnc(Cc3ccccc3)c(=O)n12 | active: 17.8 µM | 
Fc1ccc(-c2csc(=Nc3cccc(C(F)(F)F)c3)n2Cc2ccc3c(c2)OCO3)cc1 | inconclusive: 31.6 µM [inhibitor, partial curve, poor fit] | 
CCc1ccc(C(=O)NC(=S)Nc2ccccc2N2CCOCC2)cc1 | inconclusive: 20 µM [inhibitor, full curve, poor fit] | 
COc1cccc(NC(=S)NNC(=O)CCn2cc([N+](=O)[O-])cn2)c1 | inconclusive: 39.8 µM [inhibitor, partial curve] | 
CCn1c(-c2nn(C)c(C)c2Cl)n[nH]c1=S | active: 2.24 µM | 
CCOC(=O)c1[nH]c(C)c(C(=O)Nc2ccccc2C)c1C | inconclusive: 56.2 µM [inhibitor, partial curve, poor fit] | 
CCN(C(=O)CN1C(=O)/C(=C/c2ccc(F)cc2)SC1=S)C1CCS(=O)(=O)C1 (stereo not given) | inconclusive: 28.2 µM [inhibitor, full curve] | 
CCCCN1CC(c2nc3ccccc3n2CCCCOc2c(C)cccc2C)CC1=O (stereo not given) | inconclusive: 39.8 µM [inhibitor, single point] | 
Cc1cc(C)c2c(c1)[C@@H]1C=CC[C@@H]1[C@H](c1ccc(S(=O)(=O)N3CCOCC3)cc1)N2 | active: 3.55 µM | 
Cc1ccc(/C=C(\C#N)c2nc(-c3cc4c(ccc5ccccc54)oc3=O)cs2)cc1 |  | inactive: -27.6%

SMILES | Potency | activity, negative = inhibition
CCOC(=O)c1ccc(N2C(=O)c3n[nH]c(C)c3C2c2ccc(OC)c(OC)c2)cc1 (stereo not given) |  | inconclusive: -88% [inhibitor]
Cc1nc2c(=O)[nH]c(=S)n(C)c2nc1C | active: 7.08 µM | 
O=C(NCc1cccc(C(F)(F)F)c1)c1ccc(=O)[nH]c1 |  | inactive: 15.3% [at 102 µM]
CCOc1cccc(/C=N/NC(=O)c2cccnc2)c1O |  | inactive: 32.2% [at 102 µM]
COc1ccc(C2=CC(c3ccc(C)cc3)n3nnnc3N2)cc1 (stereo not given) | inconclusive: 39.8 µM [inhibitor, single point] | 
CC1=C(c2ccc(C)c(C)c2)S(=O)(=O)N=C1N1CCN(c2cccc(C(F)(F)F)c2)CC1 |  | inactive: -31%
CN(C)CCOCCOc1ccc(Cl)cc1Br | active: 8.91 µM | 
CCOc1ccc(NC(=O)COc2ccc(C(=O)NCCc3ccccc3)cc2)cc1 | inconclusive: 89.1 µM [inhibitor, single point] | 
COc1ccc(-c2ccc(NC(=O)c3ccco3)cc2)nn1 | active: 39.8 µM | 
CCOC(=O)CN1C(=O)C(O)(CC(=O)c2ccc3c(c2)CCCC3)c2ccccc21 (stereo not given) | inconclusive: 35.5 µM [inhibitor, single point] | 
CCn1c(=NC(=O)CSC(C)=O)sc2cc(F)ccc21 |  | inactive: 14.5%
Cn1nnc2cc(NC(=O)NCc3ccc4c(c3)OCO4)ccc21 | inconclusive: 0.891 µM [inhibitor, partial curve] | 
COc1cc(C(=O)NCc2cccc(Cl)c2)ccc1OCC(=O)N1CCOCC1 | inconclusive: 70.8 µM [inhibitor, single point] | 
Cc1c(NC(=O)CSc2ncccn2)c(=O)n(-c2ccccc2)n1C | inconclusive: 89.1 µM [inhibitor, single point] | 
Oc1ccc2ccccc2c1C=Nc1ccc(Cl)cn1 | active: 1.78 µM | 
COc1ccc(CNC(=O)[C@H](C)[C@@H]2C[C@@]2(C)[C@@H](NC(=O)OCc2ccccc2)c2ccccc2)cc1OC | active: 50.1 µM | 
O=C1N(Cc2cccc(Cl)c2)C[C@@H]2C[C@@H](c3cccn3-c3ccccn3)N3CCC[C@@]123 | inconclusive: 56.2 µM [inhibitor, partial curve] | 
O=C(O)c1cccc(NC(=O)c2cccc(S(=O)(=O)Nc3cccc(C(=O)O)c3)c2)c1 | inconclusive: 35.5 µM [inhibitor, partial curve, poor fit] | 
Cc1nc2ccc(Cc3ccc4nc(C)[nH]c4c3)cc2[nH]1 | inconclusive: 39.8 µM [inhibitor, single point] | 
Cc1cccc(CN2C(=O)/C(=C\c3ccc(C(=O)NCCCN4CCN(C)CC4)cc3)Oc3ccccc32)c1 | inconclusive: 89.1 µM [inhibitor, single point] | 
O=[N+]([O-])c1ccc(N2CCN(c3ccccc3Cl)CC2)cn1 |  | inactive: -33% [at 102 µM]
COc1ccc(N2CCN(C(=O)c3ccc(NS(=O)(=O)c4ccc(F)c(F)c4)cc3)CC2)cc1 | active: 56.2 µM | 
